{
  "source": "PubChem BioAssay AID1347073",
  "about": "(National Center for Advancing Translational Sciences (NCATS), 2019)",
  "note": "In all, about 45,000 compounds went through this assay and about 200 (0.44%) were called active. Not shown: some 7% with an inconclusive outcome. The call rests on the fitted dose curve; in most records, active means well fitted activation curve with a large enough effect; inconclusive means small, poorly fitted or top-dose-only effect; inactive means no such curve, though single readings can be large or run the other way. This is one part of the list.",
  "data": [
    {"test": "qHTS of TDP-43 Inhibitors: NCGC Sytravon Library Screen; further: 0% is about no effect; nearly all actives have a fitted effect of over 55% in size", "settings": "yeast TDP-43 toxicity rescue, BacTiter-Glo growth, 24 h; series mostly up to 46.1 µM; growth rescue (activation): at the top concentration", "method_in_brief": "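TDP-43-expressing yeast, pregrown in raffinose, seeded at OD600 0.02 in galactose medium with compound for 24 hr at 30 deg C. Growth read by BacTiter-Glo luminescence, so rescue of toxicity appears as activation.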", "values": [
      {"smiles": "CS(=O)(=O)N1CCN(c2ccccc2NC(=O)c2ccc(Cl)cc2)CC1", "growth rescue (activation)": "inactive: 27.1%"},
      {"smiles": "COc1ccc(/C=C/C(=O)NCc2ccccn2)cc1OC", "growth rescue (activation)": "inactive: 2.94%"},
      {"smiles": "Cc1cccc(N2CC(C(=O)OCC(=O)Nc3sccc3C(N)=O)CC2=O)c1C", "note": "(configuration not stated)", "growth rescue (activation)": "inactive: 6.53%"},
      {"smiles": "N#C/C(=C\\c1c[nH]c2ccccc12)C(=O)NCC1CCCO1", "note": "(configuration not stated)", "growth rescue (activation)": "inactive: 14.8%"},
      {"smiles": "COc1ccc(/C=C(\\NC(=O)c2ccc([N+](=O)[O-])cc2)C(=O)NCCCN2CCOCC2)cc1", "growth rescue (activation)": "inactive: 2.51%"},
      {"smiles": "CC(C)(Cc1ccc(O)cc1)NC(=O)CC(=O)N=Nc1c(O)[nH]c2cc(Br)ccc12", "growth rescue (activation)": "inactive: -2.7%"},
      {"smiles": "COc1ccc(/C=C2\\SC(=S)N(NS(=O)(=O)c3ccc(C)cc3)C2=O)c(OC)c1", "growth rescue (activation)": "inactive: 4.05%"},
      {"smiles": "Cc1ccc([N+](=O)[O-])cc1NC(=O)c1ccoc1C", "growth rescue (activation)": "inactive: -2.49%"},
      {"smiles": "Cc1ccc(NC(=O)CSc2nnnn2C)cc1S(=O)(=O)N(C)C", "growth rescue (activation)": "inactive: 7.26%"},
      {"smiles": "COc1cc(Cl)c(C)cc1NC(=O)CCNC(=O)c1ccco1", "growth rescue (activation)": "inactive: 7.72%"},
      {"smiles": "COc1cccc(/C=N/n2c(-c3cc(C)[nH]n3)n[nH]c2=S)c1O", "growth rescue (activation)": "inactive: -13.2%"},
      {"smiles": "CCN(C(=O)Cn1c(=O)oc2cc(S(=O)(=O)N3CCCCCC3)ccc21)c1cccc(C)c1", "growth rescue (activation)": "inactive: 2.97%"},
      {"smiles": "COc1ccc(-c2cc(C(=O)NC(Cc3c[nH]c4ccccc34)C(=O)O)c(C)o2)cc1OC", "note": "(configuration not stated)", "growth rescue (activation)": "inactive: -3.51%"},
      {"smiles": "O=C(Nc1ccc(N2CCOCC2)cc1)c1ccc([N+](=O)[O-])o1", "growth rescue (activation)": "inactive: 29.1%"},
      {"smiles": "O=C(CN1C(=O)NC(Cc2c[nH]c3ccccc23)C1=O)NCCc1ccccc1", "note": "(configuration not stated)", "growth rescue (activation)": "inactive: -10.4%"},
      {"smiles": "CC(=O)N1CCN(c2ccc(Nc3nc(C)nc4c3oc3ccccc34)cc2)CC1", "growth rescue (activation)": "inactive: 18.8%"},
      {"smiles": "CCN(CC(=O)NCc1cccs1)C(=O)c1cccc(S(=O)(=O)N2CCc3ccccc32)c1", "growth rescue (activation)": "inactive: 9.72%"},
      {"smiles": "COc1ccc(S(=O)(=O)N2CCc3ccccc32)cc1C(=O)N1CCC(C)CC1", "growth rescue (activation)": "inactive: 13.1%"},
      {"smiles": "O=c1[nH]cnc2c1nc(NCc1ccccc1)n2C1O[C@@H](CO)[C@H](O)[C@@H]1O", "note": "(some centres not stated)", "growth rescue (activation)": "inactive: -9.67%"},
      {"smiles": "Cc1cccc(S(=O)(=O)NC(=O)C2(C)CCN2C(=O)CCC2CCCC2)c1", "note": "(configuration not stated)", "growth rescue (activation)": "inactive: 10.9%"},
      {"smiles": "O=c1nc2ccccc2c2n1CC(CN1CCN(Cc3ccccc3)CC1)N2", "note": "(configuration not stated)", "growth rescue (activation)": "inactive: 22.7%"},
      {"smiles": "COc1ccc2[nH]c(=O)c(CNc3ccccc3C)cc2c1", "growth rescue (activation)": "inactive: -21.2%"},
      {"smiles": "CCCCC(=O)N/C(N)=N/c1nc2ccccc2o1", "growth rescue (activation)": "inactive: 25.7%"},
      {"smiles": "COc1ccc(-c2csc(NC(=O)C3CC(=O)N(c4ccc5c(c4)OCCO5)C3)n2)cc1", "note": "(configuration not stated)", "growth rescue (activation)": "inactive: 19.4%"},
      {"smiles": "CCC(C)c1ccccc1N=Cc1ccc2c(c1)OCO2", "note": "(configuration not stated)", "growth rescue (activation)": "inactive: 1.17%"},
      {"smiles": "CCCC(=O)C1=C(O)C(C(=O)OC)C(C)(C)CC1=NCCc1ccccc1", "note": "(configuration not stated)", "growth rescue (activation)": "inactive: 3.94%"},
      {"smiles": "Cc1cccc(NC(=O)C(=O)NCCCN2CCOCC2)c1", "growth rescue (activation)": "inactive: 2.6%"},
      {"smiles": "C=CCn1c(-c2ccccc2)nc2nc3ccccc3nc21", "growth rescue (activation)": "inactive: 19.5%"},
      {"smiles": "CC(=O)Nc1ccc(NC(=O)CC2SC(=O)N(CC(=O)c3ccccc3)C2=O)cc1", "note": "(configuration not stated)", "growth rescue (activation)": "inactive: 3.82%"},
      {"smiles": "Nc1nc(NC(=O)c2ccccc2Cl)nn1-c1ccccc1", "growth rescue (activation)": "inactive: 3.63%"},
      {"smiles": "C=CCNC(=S)N/N=C(\\C)c1ccc(OC)cc1", "growth rescue (activation)": "inactive: 10.1%"},
      {"smiles": "COc1ccc(C)cc1NC(=O)CCNS(=O)(=O)c1cccc(C(F)(F)F)c1", "growth rescue (activation)": "inactive: -11.5%"},
      {"smiles": "CCN1CCN(CC(O)COc2ccc(C)c(C)c2)CC1", "note": "(configuration not stated)", "growth rescue (activation)": "inactive: 8.27%"},
      {"smiles": "Cc1ccccc1C(=O)Nc1ccc(N2CCCCCC2)cc1", "growth rescue (activation)": "inactive: 13.2%"},
      {"smiles": "COc1ccc(/C=N/NC(=O)c2ccc(=O)[nH]n2)cc1OC", "growth rescue (activation)": "inactive: -4.71%"},
      {"smiles": "CC(Sc1nc2sccc2c(=O)n1-c1ccccc1)C(N)=O", "note": "(configuration not stated)", "growth rescue (activation)": "inactive: 12.2%"},
      {"smiles": "C=C1CCC[C@]2(C)C[C@H]3OC(=O)C(CN[C@@H](C)c4ccccc4)[C@H]3CC12", "note": "(some centres not stated)", "growth rescue (activation)": "inactive: 17.2%"},
      {"smiles": "Cc1cc2oc(=O)cc(CN3CCOCC3)c2cc1C(C)C", "growth rescue (activation)": "inactive: -27.6%"},
      {"smiles": "COCC(=O)OCc1cc2cccc(C)c2[nH]c1=O", "growth rescue (activation)": "inactive: 7.52%"},
      {"smiles": "Cc1cnc(NC(=O)Cc2ccccc2F)s1", "growth rescue (activation)": "inactive: -2.05%"},
      {"smiles": "Cc1cc(C2C(C#N)=C(N)SC(N)=C2C#N)c(C)s1", "growth rescue (activation)": "inactive: 38.5%"},
      {"smiles": "CCN1CCCC1CNCC(=O)Nc1ccc(OC(F)(F)F)cc1", "note": "(configuration not stated)", "growth rescue (activation)": "inactive: 17.2%"},
      {"smiles": "CNC(=S)N/N=C/c1c(C)c(C(=O)c2ccc(F)cc2)n2ccccc12", "growth rescue (activation)": "inactive: 13.3%"},
      {"smiles": "CC(C(=O)OCC(=O)Nc1cccc(S(=O)(=O)N(C)C)c1)N1C(=O)c2ccccc2C1=O", "note": "(configuration not stated)", "growth rescue (activation)": "inactive: 7.32%"},
      {"smiles": "Cc1ccc(N(CC(=O)N2CCCC2)S(C)(=O)=O)c(C)c1", "growth rescue (activation)": "inactive: 5.33%"},
      {"smiles": "Cc1nc(C(F)(F)F)ccc1C(=O)N1CCC1(C)C(=O)NS(=O)(=O)c1cccc(Cl)c1", "note": "(configuration not stated)", "growth rescue (activation)": "inactive: -1.65%"},
      {"smiles": "N#CC1=C(N)Oc2cc(N)ccc2C1c1ccccc1", "note": "(configuration not stated)", "growth rescue (activation)": "inactive: -3.8%"},
      {"smiles": "CC(C)NC(=O)c1ccc2c(c1)N(CC(=O)N1CCCCC1)C(=O)C(C)(C)O2", "growth rescue (activation)": "inactive: -13.1%"},
      {"smiles": "O=C(CN1CCOCC1)Nc1nc(-c2ccc3c(c2)CCN3S(=O)(=O)c2ccccc2)cs1", "growth rescue (activation)": "inactive: -0.53%"},
      {"smiles": "CC(=O)Nc1cccc(-c2ccnc3c2CC(C(=O)NCCN(C)C)O3)c1", "note": "(configuration not stated)", "growth rescue (activation)": "inactive: 3.99%"},
      {"smiles": "CC(=O)Nc1ccc(C(=O)OCC(=O)N2CC3(C)CC2CC(C)(C)C3)cc1", "note": "(configuration not stated)", "growth rescue (activation)": "inactive: -1.46%"},
      {"smiles": "Cc1ccc(S(=O)(=O)N2CCCCC2)cc1NC(=O)c1ccc2ccccc2n1", "growth rescue (activation)": "inactive: 6.06%"},
      {"smiles": "OC1CCCN(CC(O)COC(c2ccccc2)c2ccccc2)C1", "note": "(configuration not stated)", "growth rescue (activation)": "inactive: -2.03%"},
      {"smiles": "Cc1ccc(C(=O)NCCNC(=O)COc2ccccc2Cl)cn1", "growth rescue (activation)": "inactive: -0.943%"},
      {"smiles": "COc1ccc(NC(=O)c2ccc3nc(C)c(N(C)C(=O)CCc4ccccc4)n3c2)cc1OC", "growth rescue (activation)": "inactive: 16.4%"},
      {"smiles": "CC(C)Oc1ccc(C(=O)N(Cc2ccc(N(C)C)cc2)Cc2ccco2)cc1", "growth rescue (activation)": "inactive: 10.9%"},
      {"smiles": "COc1ccc(-c2cc(CNS(=O)(=O)c3ccccc3)on2)cc1", "growth rescue (activation)": "inactive: 12.6%"},
      {"smiles": "COc1ccc(/C=C/C(=O)Nc2ccccc2F)cc1S(=O)(=O)N1CCOCC1", "growth rescue (activation)": "inactive: -23.3%"},
      {"smiles": "CC(C)OC(=O)C1C(=O)CC(C)(O)C(C(=O)OC(C)C)C1c1ccccc1", "note": "(configuration not stated)", "growth rescue (activation)": "inactive: 7.7%"},
      {"smiles": "Cc1cc(C(=O)CCl)c(C)n1-c1c(C)n(C)n(-c2ccccc2)c1=O", "growth rescue (activation)": "inactive: 8.03%"},
      {"smiles": "COc1cccc(C(C)(O)c2nc(-c3ccc(F)c(Cl)c3)cs2)c1", "note": "(configuration not stated)", "growth rescue (activation)": "inactive: -41.1%"},
      {"smiles": "O=C(N/N=C/c1ccc2c(c1)OCO2)c1cccnc1", "growth rescue (activation)": "inactive: 2.19%"},
      {"smiles": "O=C(NC1CC1)c1nc(Cn2ccc([N+](=O)[O-])n2)no1", "growth rescue (activation)": "inactive: -11.3%"},
      {"smiles": "Cn1nnc(NC(=S)NC(=O)c2cccc3ccccc23)n1", "growth rescue (activation)": "inactive: 22.9%"},
      {"smiles": "CC1Cc2ccccc2N1C(=S)Nc1cccc(S(=O)(=O)N(C)C)c1", "note": "(configuration not stated)", "growth rescue (activation)": "inactive: 23.4%"},
      {"smiles": "CC(NS(=O)(=O)c1ccccc1Cl)C1CC2CCC1C2", "note": "(configuration not stated)", "growth rescue (activation)": "inactive: -5.55%"},
      {"smiles": "COc1ccc(C(=O)NCC2(c3ccccc3)CCOCC2)cc1[N+](=O)[O-]", "growth rescue (activation)": "inactive: 3.64%"}
    ]}
  ]
}
